{"source": "paper PMC4336329", "about": "(PLoS ONE, 2015)", "note": "About 2,200 (0.71%) of roughly 310,000 compounds showed an effect of 50% or more. The effect is printed as a negative number. The list shows a part of the results.", "data": [{"molecular_target": "human ether-à-go-go-related gene (hERG) potassium channel (human, UniProt Q12809)", "sequence (Q12809 whole entry, looked up)": "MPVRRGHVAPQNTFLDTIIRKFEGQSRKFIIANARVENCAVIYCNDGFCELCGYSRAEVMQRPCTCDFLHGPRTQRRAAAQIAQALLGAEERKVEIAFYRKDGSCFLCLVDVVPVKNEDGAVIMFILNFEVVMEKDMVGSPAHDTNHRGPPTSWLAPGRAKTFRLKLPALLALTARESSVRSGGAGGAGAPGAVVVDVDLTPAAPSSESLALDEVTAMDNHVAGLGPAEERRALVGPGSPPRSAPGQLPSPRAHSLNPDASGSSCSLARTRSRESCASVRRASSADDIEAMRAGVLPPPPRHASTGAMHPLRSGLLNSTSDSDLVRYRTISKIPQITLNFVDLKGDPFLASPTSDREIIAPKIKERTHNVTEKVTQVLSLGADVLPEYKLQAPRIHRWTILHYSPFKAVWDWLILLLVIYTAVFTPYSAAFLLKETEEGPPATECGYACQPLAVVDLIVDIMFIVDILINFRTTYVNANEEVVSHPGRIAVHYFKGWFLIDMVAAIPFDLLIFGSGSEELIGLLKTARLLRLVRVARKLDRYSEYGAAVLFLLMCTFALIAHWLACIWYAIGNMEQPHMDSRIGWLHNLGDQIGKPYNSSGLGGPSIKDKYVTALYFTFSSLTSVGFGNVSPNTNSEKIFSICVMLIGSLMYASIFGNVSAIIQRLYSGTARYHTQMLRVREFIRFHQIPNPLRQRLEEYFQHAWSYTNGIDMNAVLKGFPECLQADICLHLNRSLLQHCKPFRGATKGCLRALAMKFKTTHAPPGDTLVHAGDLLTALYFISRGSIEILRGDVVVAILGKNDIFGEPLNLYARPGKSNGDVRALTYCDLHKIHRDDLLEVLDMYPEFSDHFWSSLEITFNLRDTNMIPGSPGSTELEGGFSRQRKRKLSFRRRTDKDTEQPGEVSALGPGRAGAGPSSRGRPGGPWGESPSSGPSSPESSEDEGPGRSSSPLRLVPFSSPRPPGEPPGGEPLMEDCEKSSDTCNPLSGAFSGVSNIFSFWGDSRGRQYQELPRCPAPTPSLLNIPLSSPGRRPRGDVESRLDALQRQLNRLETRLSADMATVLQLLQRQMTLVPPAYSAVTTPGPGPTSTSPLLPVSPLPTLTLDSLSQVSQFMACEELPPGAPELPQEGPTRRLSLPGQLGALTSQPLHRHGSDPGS", "assay": "primary screen, population patch clamp on CHO cells stably expressing hERG", "units": {"hERG current change (%, negative = inhibition) at 1uM": "%"}, "values": [{"smiles": "CC(=O)NC12CC3CC(C1)CC(C(=O)N(C)CC(=O)Nc1ccccc1Cl)(C3)C2", "hERG current change (%, negative = inhibition) at 1uM": -3.96}, {"smiles": "O=C(Nc1ccccc1)NC1CC2CCC(C1)N2Cc1nnnn1Cc1ccc2c(c1)OCO2", "note": "(centres unmarked)", "hERG current change (%, negative = inhibition) at 1uM": 3.29}, {"smiles": "CCn1c(CNC(=O)c2cccc(C)c2)nc2ccccc21", "hERG current change (%, negative = inhibition) at 1uM": 9.03}, {"smiles": "O=C(CSc1nc(=O)n(CCN2CCOCC2)c2c1CCCC2)Nc1ccc(F)cc1F", "hERG current change (%, negative = inhibition) at 1uM": 0.18}, {"smiles": "Cc1ccc(S(=O)(=O)N2CCOC2CNC(=O)C(=O)NCc2ccco2)cc1", "note": "(centres unmarked)", "hERG current change (%, negative = inhibition) at 1uM": 9.8}, {"smiles": "COc1ccc(CN2C(=O)CSC2c2ccncc2)cc1", "note": "(centres unmarked)", "hERG current change (%, negative = inhibition) at 1uM": 9.92}, {"smiles": "OCCCc1nc2ccccc2n1CCCCOc1ccccc1", "hERG current change (%, negative = inhibition) at 1uM": -23.9}, {"smiles": "CN(C)CCCNCCCNC(=O)/C=N/O", "hERG current change (%, negative = inhibition) at 1uM": 3.26}, {"smiles": "O=C1O/C(=C/C(=O)N2CCOCC2)c2ccccc21", "hERG current change (%, negative = inhibition) at 1uM": 10.5}, {"smiles": "COc1cc2c(cc1OC)-c1cc(NC3CCCCCCC3)nc(=O)n1CC2", "hERG current change (%, negative = inhibition) at 1uM": 6.28}, {"smiles": "Cc1cc(C)c(NC(=O)CS(=O)CC(=O)N2CCN(c3ccc(F)cc3)CC2)c(C)c1", "note": "(centres unmarked)", "hERG current change (%, negative = inhibition) at 1uM": -15.6}, {"smiles": "CCN(CC)N=Nc1cccc(NC(C)=O)c1", "hERG current change (%, negative = inhibition) at 1uM": 8.84}, {"smiles": "O=C(NNc1nc2cc3c(cc2s1)OCCO3)c1ccccc1", "hERG current change (%, negative = inhibition) at 1uM": 2.27}, {"smiles": "O=P(OCC(F)(F)C(F)F)(N1CCOCC1)N1CCOCC1", "hERG current change (%, negative = inhibition) at 1uM": -1.74}, {"smiles": "COc1ccc(CCC(=O)Nc2ccc(OC)c(S(=O)(=O)N3CCCCC3)c2)cc1", "hERG current change (%, negative = inhibition) at 1uM": -7.4}, {"smiles": "CCOc1ccc(-n2c(N)c(C(=O)N3CCN(C)CC3)sc2=S)cc1", "hERG current change (%, negative = inhibition) at 1uM": 3.05}, {"smiles": "CC1=NN(c2ccccc2)C(=O)/C1=C/N(C)C", "hERG current change (%, negative = inhibition) at 1uM": 9.48}, {"smiles": "COc1ccc(NC(=O)C2CCN(C(=O)c3ccccc3)CC2)cc1OC", "hERG current change (%, negative = inhibition) at 1uM": -4.01}, {"smiles": "CC1CN(C(=O)/C(=C/c2ccco2)NC(=O)c2ccccc2)CC(C)O1", "note": "(centres unmarked)", "hERG current change (%, negative = inhibition) at 1uM": 16.7}, {"smiles": "Cc1ccc(NC(=O)CCc2c(C)nc3ncnn3c2C)nc1", "hERG current change (%, negative = inhibition) at 1uM": 7.07}, {"smiles": "Cc1oc(-c2cccc(Cl)c2)nc1CSCC(=O)O", "hERG current change (%, negative = inhibition) at 1uM": 14.6}, {"smiles": "CCCc1cc(NCCCO)n2c(nc3ccccc32)c1C#N", "hERG current change (%, negative = inhibition) at 1uM": 10.7}, {"smiles": "Cn1c(=O)[nH]c(=O)c2c1nc(NC1CCCC1)n2Cc1ccccc1", "hERG current change (%, negative = inhibition) at 1uM": 13.4}, {"smiles": "O=C(COC(=O)CN1C(=O)C2CCCCC2C1=O)NC1CCS(=O)(=O)C1", "note": "(centres unmarked)", "hERG current change (%, negative = inhibition) at 1uM": 1.8}, {"smiles": "O=C(NCC1CCCO1)c1csc2c1CCCCC2", "note": "(centres unmarked)", "hERG current change (%, negative = inhibition) at 1uM": 4.73}, {"smiles": "COc1cc(NC(=O)C2CCCN2S(=O)(=O)c2ccc3c(c2)CCC(=O)N3)cc(OC)c1", "note": "(centres unmarked)", "hERG current change (%, negative = inhibition) at 1uM": 6.3}]}]}
